Over roughly 33,000 sequences, “E-score (-0.5 to 0.5)” has its median near -0.041; the highest 2% begin near 0.37. This is one part of the list.
Molecular target: T1, Ecm22 (UniProt Q05958)
T1 sequence: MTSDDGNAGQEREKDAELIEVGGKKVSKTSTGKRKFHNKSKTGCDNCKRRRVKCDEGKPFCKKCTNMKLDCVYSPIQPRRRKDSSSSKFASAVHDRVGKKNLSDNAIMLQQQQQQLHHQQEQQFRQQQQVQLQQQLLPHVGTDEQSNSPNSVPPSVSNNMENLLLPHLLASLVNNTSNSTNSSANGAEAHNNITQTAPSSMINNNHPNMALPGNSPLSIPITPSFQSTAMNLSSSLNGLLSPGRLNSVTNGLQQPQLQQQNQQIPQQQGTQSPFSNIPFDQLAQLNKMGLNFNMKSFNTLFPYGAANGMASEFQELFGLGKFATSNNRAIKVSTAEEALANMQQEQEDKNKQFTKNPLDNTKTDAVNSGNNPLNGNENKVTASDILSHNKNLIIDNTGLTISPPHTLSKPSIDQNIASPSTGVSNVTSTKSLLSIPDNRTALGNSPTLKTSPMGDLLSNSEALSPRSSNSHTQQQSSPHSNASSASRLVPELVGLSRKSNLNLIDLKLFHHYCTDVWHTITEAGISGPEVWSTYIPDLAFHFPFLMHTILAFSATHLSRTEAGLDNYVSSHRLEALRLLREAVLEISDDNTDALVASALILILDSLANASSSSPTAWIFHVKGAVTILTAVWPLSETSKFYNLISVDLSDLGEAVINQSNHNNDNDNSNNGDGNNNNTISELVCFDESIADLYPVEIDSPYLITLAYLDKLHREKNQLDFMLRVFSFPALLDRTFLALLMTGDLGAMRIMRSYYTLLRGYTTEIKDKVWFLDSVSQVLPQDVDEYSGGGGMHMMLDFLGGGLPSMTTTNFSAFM
Test: PBM E-score (8-mer binding enrichment) (E-score (-0.5 to 0.5)); higher = stronger / more preferred TF binding; most listed sequences are background and not binding sites
Conditions: protein concentration: 200 nM; construct: GST-full length
In short: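 Yeast transcription factors carrying a GST tag, as full-length proteins or DNA-binding domains, were produced by PURExpress in vitro transcription/translation. About 100-200 nM protein was applied to universal all-10-mer Agilent arrays, double-stranded by primer extension on fresh or once-stripped slides. Bound protein was detected with fluorescent anti-GST, and scans were normalised with masliner. The Universal PBM Analysis Suite gave each ungapped eight-base word, pooled with its reverse complement, an E-score, a modified Wilcoxon-Mann-Whitney statistic.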

Sequence | PBM E-score
CATAGGTC | -0.0995
ATCCTGCA | -0.21
AGTCCTCA | -0.363
CAAGTACG | 0.302
CGCAGACG | 0.0182
CAGACGAG | 0.199
CGCTTAAC | 0.347
CCGTATCG | 0.291
CCGCGCAG | 0.138
GGGCCACA | -0.138
CCGTCGTC | 0.0655
ATTCGCGC | 0.091
AGCTTGAC | -0.0484
CCCCCTTA | -0.231
GAATCACA | -0.0486
AGTGACAC | -0.0235
AATCTACA | 0.126
CCCTACTC | -0.0363
GGCGTTAC | -0.0165
ACCTTAGG | -0.312
AGATACCG | -0.0647
ACGTAGGC | -0.0572
CTTACATA | -0.042
CAATCGTC | -0.0527
CCGTCACA | -0.128

Sequence | PBM E-score
TACTTTCA | -0.0821
ACGAAGGG | 0.362
AAAGCTCT | -0.258
AACCTATC | -0.132
CTTGGCTC | -0.151
AGCGGAGG | -0.0849
ATAGAGAA | -0.112
CCCGATGA | -0.0212
TATGGCGA | 0.00926
CAGTCAAA | 0.0712
ACAGGCAC | -0.0318
CGTGACTA | 0.0224
ACTCTGAA | -0.0558
AATACCGA | 0.111
CTAATCGA | 0.17
CTTACAGA | -0.194
AGCGCAGC | -0.092
AGATAAGA | 0.057
CAATGCAG | -0.114
AGGAGCAT | -0.17
AGTTAACC | 0.0545
AATACATT | -0.0134
CGAGACGC | 0.141
CGCATAGA | 0.138
TCTTAACA | -0.147

Sequence | PBM E-score
AAACGCTT | 0.00074
CACTTGAA | -0.15
TCGGGTCA | 0.241
CGCTATAA | 0.164
AGTTGTTA | -0.108
ATCCGCCG | -0.0335
AAGCGTGT | -0.18
AGCCAGTG | -0.0428
AACACTCT | -0.223
CCCTGCGG | -0.0714
ACAATGTC | 0.0348
AAAAGTGG | -0.0642
CCAAATGC | -0.251
AGTACTAT | 0.0505
ACTATGCC | -0.133
ATTACTCA | -0.191
TACCCCCA | -0.17
AGCCTTAC | -0.108
CGTGCTGA | -0.109
AACCTAGG | -0.145
AAACGACG | 0.465
GCCGGGAA | -0.114
CAGCATCC | -0.16
GATCCTGA | 0.14
CCGAGGGC | 0.203

Sequence | PBM E-score
CGGGGCAG | 0.098
CCGACGAG | 0.165
CTTGAATC | -0.0358
CTGGAGGA | -0.232
CAAGATCC | -0.0465
GAGAACTA | 0.107
CACCCAAG | 0.0915
TCATAGCA | -0.108
GGAGGGGA | -0.0839
GCCAACAA | -0.138
CCAGCAAG | -0.163
CACGGCCA | -0.32
CCTATGCC | -0.133
TGCGGTAA | 0.0996
GAGGTAGC | -0.00449
ACAAAACG | 0.102
AATAGTGT | 0.0911
CGGTCACA | 0.0119
ACCGGTCC | -0.256
AAGTCGTG | -0.0717
AGCAGACC | 0.0909
CCTCTGTA | 0.102
GACTAACA | 0.0595
TTCTCCAA | -0.013
CGCTAACG | 0.252

Sequence | PBM E-score
GCAAGGCC | -0.166
CCTAAACA | -0.149
ATATCCAA | -0.108
CCGAGCGC | 0.216
TAGTCTAA | -0.04
AATTGTTC | 0.122
CGTGGGTA | -0.247
CTTGTCAC | -0.108
CTGAGTCC | -0.14
AGCATGAC | -0.189
AGATGTGG | -0.152
AATCGATC | 0.0253
GCAAGTAC | 0.0873
AAGACAAG | -0.084
GAAAGGGC | -0.298
GTGATGTA | 0.127
GGGAGACC | -0.194
AACCCGCC | 0.00548
CTCACGCC | -0.0247
GTACAGAA | 0.12
CACACTGA | -0.0509
ATATAGGG | -0.0439
GTCGCCCA | -0.207
CTACTACC | -0.0712
TGCCTTAA | -0.118

Sequence | PBM E-score
ACACGTAA | -0.0557
GGTTAAAA | 0.104
CGGCTCAC | -0.0852
CGCGAGCC | 0.272
CCGGGGAA | -0.2
AATGGAAA | -0.198
GCAGAGAA | -0.192
GCCGGTCC | -0.285
GATTATAA | 0.16
ACTGGTCA | -0.0474
ATTGAGAG | -0.0594
AGCGGTAC | 0.254
AAAGGATA | -0.00559
AAGGGCAT | -0.348
AATCACAA | -0.0516
AGTCCGAT | 0.0155
GTCTCAAC | -0.168
CAGTGCGA | 0.0878
CCGAAGCC | -0.156
AGCTGATG | -0.106
CCGGACTC | -0.0304
CAGTACAG | -0.0162
GCCCAACA | -0.108
AATTAGTC | 0.0876
AATCCCCT | -0.182

Sequence | PBM E-score
CAGGCTTC | -0.0197
ATCCTAGA | -0.176
AGGGTACG | 0.411
ACAGTAGA | -0.0321
CAGTAGGG | -0.255
ATAGTCGG | -0.0281
GGCGCGGA | -0.192
AGTGTGAC | -0.0932
ACGTCCCC | -0.144
ATGCGACC | 0.288
CGACTACC | 0.0502
GCATCCAA | -0.237
ATGGTTAA | -0.122
CTTGTTAC | -0.105
AAGGCCTT | -0.158
CCGTCGCA | 0.205
CAATACGG | 0.0307
CATTCGGG | -0.102
AGCAAGTG | -0.181
CATGAAGG | -0.217
AATTTATA | 0.238
CCGTCTCA | -0.234

Reference: the supplement of paper PMC3334620
